Reference: the supplement of paper PMC4604168 (melanoma cell lines)
The list shows a part of the results. Repeats are few or missing, and single values can be far off.

Legend:
Assay in all cases: cell count relative to DMSO control; melanoma cells; higher = more viable cells
Details in all cases: library dose: standard library concentration; 72 h
[1] = test system: G361
[2] = test system: IPC-298
[3] = test system: IST-MEL1
[4] = test system: LB2518-MEL
[5] = test system: LOXIMVI
[6] = test system: MEL-HO
[7] = test system: MZ2-MEL
[8] = test system: MeWo
[9] = test system: RPMI7951
[10] = test system: RVH-421
[11] = test system: SkMel28
[12] = test system: SkMel2
[13] = test system: SkMel30
[14] = test system: SkMel5
[15] = test system: UACC257
[16] = test system: UACC62
[17] = test system: WM115
[18] = test system: WM1716
[19] = test system: WM1745
[20] = test system: WM3526
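Also: cells treated in 1,536-well plates, then fixed and DAPI-stained, with nuclei counted from automated high-throughput microscope images.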

| Structure (SMILES) | cell count [1] [%] | cell count [2] [%] | cell count [3] [%] | cell count [4] [%] | cell count [5] [%] | cell count [6] [%] | cell count [7] [%] | cell count [8] [%] | cell count [9] [%] | cell count [10] [%] | cell count [11] [%] | cell count [12] [%] | cell count [13] [%] | cell count [14] [%] | cell count [15] [%] | cell count [16] [%] | cell count [17] [%] | cell count [18] [%] | cell count [19] [%] | cell count [20] [%] |
| --- | --- | --- | --- | --- | --- | --- | --- | --- | --- | --- | --- | --- | --- | --- | --- | --- | --- | --- | --- | --- |
| C[C@@H](Oc1cc(-c2cnn(C3CCNCC3)c2)cnc1N)c1c(Cl)ccc(F)c1Cl [Crizotinib] + O=C(CCCCCCC(=O)Nc1ccccc1)NO [vorinostat] (first compound 1 µM, partner dose 0.4 µM) | 83.2 | 106 | 109 | 80.8 | 80.9 | 90.2 | 107 | 75.2 | 69.6 | 97 | 44.9 | 73.4 | 100 | 67.8 | 72 | 85 | 57.2 | 69 | 58.8 | 67.7 |
| C[C@@H](Oc1cc(-c2cnn(C3CCNCC3)c2)cnc1N)c1c(Cl)ccc(F)c1Cl [Crizotinib] + NC(=O)Nc1cc(-c2cccc(F)c2)sc1C(=O)N[C@H]1CCCNC1 [AZD7762] (first compound 1 µM, partner dose 0.1 µM) | 114 | 98.1 | 114 | 65.5 | 74.3 | 81.1 | 103 | 77.3 | 31.5 | 93.9 | 41.4 | 94 | 76.6 | 63.2 | 74 | 83.8 | 45.1 | 71.1 | 37.1 | 45.2 |
| CN1CCN(c2ccc3nc(-c4c(N)c5c(F)cccc5[nH]c4=O)[nH]c3c2)CC1 [Dovitinib] + CCCS(=O)(=O)Nc1ccc(F)c(C(=O)c2c[nH]c3ncc(Cl)cc23)c1F [PLX4720] (first compound 0.5 µM, partner dose 0.4 µM) | 41.1 | 52.5 | 60.6 | 52.1 | 70.1 | 62.2 | 45.1 | 45.1 | 63.3 | 52.2 | 37.1 | 72.5 | 83.9 | 46.4 | 83.1 | 54.5 | 69.5 | 56.2 | 55.8 | 39.1 |
| CS(=O)(=O)CCNCc1ccc(-c2ccc3ncnc(Nc4ccc(OCc5cccc(F)c5)c(Cl)c4)c3c2)o1 [lapatinib] + Clc1ccc(Nc2nnc(Cc3ccncc3)c3ccccc23)cc1 [vatalanib] (first compound 4 µM, partner dose 10 µM) | 44.7 | 67.1 | 73.4 | 90.9 | 44.4 | 40.7 | 27.6 | 71 | 45.2 | 52.8 | 60 | 74.3 | 71.9 | 29.8 | 61.4 | 29.7 | 62.5 | 75 | 65.3 | 57.7 |
| CNC(=O)c1cc(Oc2ccc(NC(=O)Nc3ccc(Cl)c(C(F)(F)F)c3)cc2)ccn1 [sorafenib] + NC(=O)Nc1cc(-c2cccc(F)c2)sc1C(=O)N[C@H]1CCCNC1 [AZD7762] (first compound 2 µM, partner dose 0.1 µM) | 91.5 | 98.7 | 87.4 | 78.7 | 79.4 | 90.8 | 122 | 79.6 | 24.1 | 103 | 56.3 | 79.1 | 64.1 | 87.2 | 78.1 | 59 | 84.2 | 69.1 | 66.5 | 48.7 |
| C=CCNC1=C2C[C@@H](C)C[C@H](OC)[C@H](O)[C@@H](C)/C=C(\C)[C@H](OC(N)=O)[C@@H](OC)/C=C\C=C(/C)C(=O)NC(=CC1=O)C2=O [Tanespimycin] + Cc1ccc(NC(=O)c2cccc(N(C)C)c2)cc1NC(=O)c1ccc(O)cc1 [ZM336372] (first compound 0.01 µM, partner dose 10 µM) | 93.7 | 107 | 68.4 | 93.4 | 86.8 | 92.8 | 110 | 91.9 | 27.4 | 149 | 68.5 | 80.2 | 116 | 81.4 | 102 | 66.8 | 41.5 | 118 | 55.8 | 68 |
| CS(=O)(=O)CCNCc1ccc(-c2ccc3ncnc(Nc4ccc(OCc5cccc(F)c5)c(Cl)c4)c3c2)o1 [lapatinib] + OCc1c[nH]c2ccccc12 [Indole-3-carbinol] (first compound 4 µM, partner dose 4 µM) | 69.6 | 76.5 | 68.9 | 113 | 68.7 | 68.9 | 68 | 83.5 | 70.5 | 75.8 | 86.6 | 88.3 | 84.3 | 57.4 | 93.6 | 36 | 72.3 | 77.3 | 103 | 81 |
| CN1CCN(c2ccc3nc(-c4c(N)c5c(F)cccc5[nH]c4=O)[nH]c3c2)CC1 [Dovitinib] + CO[C@H]1C[C@@H]2CC[C@@H](C)[C@@](O)(O2)C(=O)C(=O)N2CCCC[C@H]2C(=O)O[C@H]([C@H](C)C[C@@H]2CC[C@@H](OCCO)[C@H](OC)C2)CC(=O)[C@H](C)/C=C(\C)[C@@H](O)[C@@H](OC)C(=O)[C@H](C)C[C@H](C)/C=C/C=C/C=C/1C [everolimus] (first compound 0.5 µM, partner dose 0.1 µM) | 32.2 | 53.6 | 54.6 | 48.3 | 106 | 61 | 35.5 | 39.9 | 70.4 | 106 | 32.3 | 53.3 | 68.5 | 43.8 | 71.5 | 68.6 | 40.4 | 59.1 | 60.9 | 55.3 |
| CN1CCN(c2ccc3nc(-c4c(N)c5c(F)cccc5[nH]c4=O)[nH]c3c2)CC1 [Dovitinib] + Nc1cccc2c1CN(C1CCC(=O)NC1=O)C2=O [lenalidomide] (first compound 0.5 µM, partner dose 5 µM) | 56.5 | 75.1 | 78 | 51.7 | 91.1 | 73 | 48.4 | 49 | 98.5 | 125 | 57.1 | 71.9 | 76.7 | 61.1 | 75.7 | 69 | 65.8 | 69.9 | 48.6 | 68 |
